Whole data set: some 13,000 compounds, median “IFI” near 4, cut for the highest 2% near 17. The list shows a part of the results.

A short description of this assay: GSK_TCMDC: Inhibition Frequency Index (IFI). The number of non-kinase HTS assays where a compound showed > 50 % inhibition, expressed as a percentage of the number of such assays in which the compound was tested (-0 is zero). Type of assay: functional.
The compound `Cc1c(S(=O)(=O)Nc2ccc3nccc(N4CCN[C@H](C)C4)c3c2)sc2ccc(Cl)cc12` had an IFI of 4.44%. The compound `CN(C(=O)c1ccccc1)C1c2cc(C#N)ccc2OC(C)(C)C1O` (configuration not stated) gave an IFI of 0.74%. `CCc1ccc(-c2nc3cc(NC(=O)c4cc([N+](=O)[O-])cc([N+](=O)[O-])c4)ccc3o2)cc1` registered an IFI of -0%. `COc1ccc(CNCc2ccccc2)cc1-c1ccc(OC)c(S(=O)(=O)NCCN2CCCC2)c1` displayed an IFI of 5.71%.

As to `CC1CN(c2cccc3c2nc(-c2cncc(C#N)c2)n3CCNCc2ccccc2)CC(C)O1` (configuration not stated), the IFI was -0%.

Compound `O=C(Nc1ccc(-c2cccc(-c3nc4cc(F)ccc4[nH]3)c2)cc1)Nc1ccc(F)c(F)c1F` yielded an IFI of 5%. The compound `CC1CCC2(CC1)N=C(N)N=C(N)N2OCc1ccc(Br)c2ccccc12` (configuration not stated) came in with an IFI of 9.35%. In the case of `c1ccc(-c2ccc3c(Nc4ccc5[nH]ccc5c4)ccnc3c2)nc1`, the IFI came to 1.42%. Turning to `Cc1ccc2[nH]c(-c3cc(-c4ccc(OCc5ccccc5)cc4)cnc3N)nc2c1`, the IFI stood at 3.08%. The figure for `CSc1nc2nc(C)c(Cc3cccc(C(F)(F)F)c3)c(C)n2n1` is 1.37%. Regarding `CCOc1cc(C(=O)N[C@@H](Cc2ccccc2)[C@H](O)CNCc2cccc(OC)c2)cc(N2CCCCS2(=O)=O)c1`, the IFI came out at 4.51%. The figure for `CCN1CCN(Cc2c(O)ccc3c(=O)c(Oc4cc(C)cc(C)c4)c(C(F)(F)F)oc23)CC1` is 1.5%; for `COc1cc(Nc2nccc(N3CCC(NC(=O)c4cccc(C#N)c4)C3)n2)cc(OC)c1OC` (configuration not stated) it is 3.08%. Turning to `CCOC(=O)c1cnc2c(OC)cc(OC)c(Cl)c2c1Nc1ccccc1`, the IFI stood at 2.8%. `CCCc1cc(N2CCC(N(CC)CC)C2)nc(Nc2ccc(OC)cc2)n1` (configuration not stated) had an IFI of 1.2%. `N#Cc1cccc(Nc2nccc(NCC(O)c3ccc(C(F)(F)F)cc3)n2)c1` (configuration not stated) displayed an IFI of 20.4%. The compound `Cc1nc(-c2cccc(Nc3nccc(NCC(O)c4cccc(C(F)(F)F)c4)n3)c2)cs1` (configuration not stated) registered an IFI of 11%. `Cc1cccc(N2C(N)=NC(N)=NC2(C)C)c1C`: the IFI was -0%. On to `CS(=O)(=O)c1ccc(CNCc2ccc(-c3cccc(-c4nc5ccccc5[nH]4)c3)cc2)cc1`, for which the IFI amounted to 6.8%. Compound `c1ccc2c3c(ccc2c1)Sc1c(ccc2ccccc12)N3` came in with an IFI of 5.07%. Regarding `CCc1cn2c3c(cc(C(=O)N[C@@H](Cc4cc(F)cc(F)c4)[C@H](O)CNC4CC4)cc13)N(C)S(=O)(=O)CC2`, the IFI was determined as 2.94%. In turn, `CS(=O)(=O)c1ccc(-c2nc(NCC3CCCCC3)cc(C(F)(F)F)n2)cc1` displayed an IFI of 4.44%.

As to `N#Cc1ccc(N[C@@H](CC2CCCCC2)C(=O)NCc2cc(F)c(F)cc2F)c2ccccc12`, the IFI amounted to 4.76%.

Turning to `COc1ccc(C=Cc2cc(=N)c3ccccc3[nH]2)cc1Br`, the IFI turned out to be 2.82%. The figure for `Fc1ccc(Nc2nnc(CNC3CCN(Cc4ccc(Cl)c(Cl)c4)CC3)[nH]2)cc1` is 10%; for `CCc1ccc(NC(=O)c2cccc(CN3CCCN(Cc4cccc(O)c4)CC3)c2)cc1` it is 5.63%. `COc1cc(F)c2ncc(Cl)c([C@H](O)CN3CCC(NCc4cc5c(cn4)OCCO5)CC3)c2c1` displayed an IFI of 0.88%. `O=C(N[C@@H](CC1CCCCC1)C(=O)NCCN1CCCCC1)c1ccc(O)c(-c2cccc(C(F)(F)F)c2)c1`: the IFI was 2.86%. Consider `O=C(NC(=O)c1ccccc1O)c1ccccc1O`, for which the IFI is 0%. As for `COc1cccc(NC(=O)c2ccc(NCCCN3CCC(C)CC3)c([N+](=O)[O-])c2)c1`, the IFI stood at 1.47%.

In the case of `c1cc(CN2CCC(CCN3CCCCC3)CC2)cc(-c2csc(-c3nc4ccccc4[nH]3)c2)c1`, the IFI worked out at 6.94%. The figure for `Cc1cc2nc(-c3ccc(C(=O)NCc4cccc(C(F)(F)F)c4)cc3)[nH]c2cc1C` is 3.01%. The result for `O=C(Cc1ccc(NC(=O)c2ccc(O)c(-c3ccc(Cl)c(Cl)c3)c2)cc1)NCCN1CCCCC1` reads 1.48%; that for `N=C(NCCc1ccc(Cl)cc1)c1ccc(Cl)c(Cl)c1`, 1.49%; that for `C=CCOc1cc(Cc2cnc(N)nc2N)cc(OC)c1OC`, 0.73%.

`O=C(Nc1ccc(S(=O)(=O)N2CCCCCC2)cc1)c1cc(-c2ccccc2O)n[nH]1`: the IFI was determined as 4.41%.

On to `O=C(Nc1cccc(F)c1)NC1CCN(c2ccnc3cc(Cl)ccc23)C1` (configuration not stated), for which the IFI is -0%. Turning to `CCC1N=C(N)N=C(N)N1OCc1cccc2ccccc12` (configuration not stated), the IFI worked out at 2.16%. Consider `COc1cc([N+](=O)[O-])ccc1NC(=O)c1cc(Cl)ccc1O`, for which the IFI was found to be 35.6%. Compound `CC(C)C1=NC(=O)c2cc([N+](=O)[O-])ccc2CN1` had an IFI of 0.67%. `c1ccc(OCCOc2ccc(Nc3ccnc4cc5ccccc5cc34)cc2)cc1` returned an IFI of 9.56%. The result for `O=C(Nc1cccc(-c2cccc(-c3ccc(F)cc3)n2)c1)c1ccc([N+](=O)[O-])o1` reads 19.1%. The figure for `COc1ccc(CNCc2cccc(-c3csc(-c4nc5ccccc5[nH]4)c3)c2)cc1` is 2.86%; for `CN1CCC(Oc2cc(CN3CC[C@H](NC(=O)c4ccc(Cl)c(Cl)c4)C3)ccc2I)C1` (some centres not stated) it is 16.7%. In turn, `COc1cc2c(cc1C(F)(F)F)N(C(=O)Nc1cc(F)cc(-c3cccnn3)c1)CC2` came in with an IFI of 0.7%. In the case of `NC1CCCN(Cc2cccc(-c3ccc(-c4nc5ccccc5[nH]4)s3)c2)C1` (configuration not stated), the IFI came out at 4.29%.

As to `CCOc1ccc(NC(=O)c2ccc(CN3CCCN(Cc4cccc(O)c4)CC3)cc2)cc1`, the IFI came out at 9.02%. `CC(C)(CNC(=O)[C@@H]1CCCN(Cc2ccc(Cl)cc2)C1)c1nc(-c2ccc(Cl)c(O)c2)c(-c2ccncc2)[nH]1` returned an IFI of 2.19%.

The compound `O=C(NC(CCCN1CCC(c2ccccc2)CC1)c1ccc(Cl)c(Cl)c1)c1cc(C(F)(F)F)cc(C(F)(F)F)c1` (configuration not stated) came in with an IFI of 4.76%. `CN1CCC(Oc2ccc(CN3CC[C@H](NC(=O)c4ccc(Cl)c(Cl)c4)C3)cc2Cl)C1` (some centres not stated) registered an IFI of 10%. Compound `Cc1[nH]c(C)c(-c2ccc(-c3ccccc3C(F)(F)F)nc2)c(=O)c1Br` gave an IFI of 0.92%. `O=C(C=Cc1ccc(Cl)c(Cl)c1)NCCCCCN1CCC(CCCNC(=O)C2CC2c2ccccc2)CC1` (configuration not stated): the IFI was 5.67%. `CN(C)c1ccnc2ccc(NC(=O)Nc3ccnc4ccccc34)cc12` returned an IFI of 6.02%.

For the compound `O=S(=O)(Nc1cc2c(cc1O)CCN(C1CCC1)CC2)c1ccc(Oc2ccc(F)cc2)cc1`, the IFI is 3.08%.

`C[C@@H](C(N)=O)N1CCCCC1c1ccc(OCc2cccc(F)c2)cc1` (some centres not stated) registered an IFI of 33.8%.

As to `Cc1cc(OCCCN2CCC(NC(=O)c3ccc(Br)cc3)C2)c2ccccc2n1` (configuration not stated), the IFI turned out to be 0.9%.

For `COc1ccc(C(=O)CCc2ccc(O)cc2)cc1`, the IFI turned out to be 0%. For `O=C(NC1c2ccccc2Oc2ccccc21)c1ccccc1O`, the IFI was 0.74%. The figure for `COC(=O)[C@@H](NC(=O)[C@H](CC(C)C)Nc1ccc(C#N)c2ccccc12)c1ccc(O)cc1` is 4.85%; for `CNC(=O)C1Cc2c([nH]c3ccc(Cl)cc23)C2(CCN(CCc3ccccc3)CC2)N1` (configuration not stated) it is 5.97%; for `CN1CCN(S(=O)(=O)c2ccc3nccc(Nc4ccc(Oc5ccccc5)cc4)c3c2)CC1` it is 0.72%. As to `O=C(CNc1ccc(Cl)c(S(=O)(=O)N2CCCC2)c1)Nc1ccc(Br)cc1F`, the IFI stood at 5.97%. The compound `O=[N+]([O-])c1cccc(CNC2CCN(Cc3ccc4ccccc4c3)CC2)c1` came in with an IFI of 2.13%. The figure for `CN(C)CC(=O)NCC(NCCCNc1cc(=O)c2ccccc2[nH]1)c1cc(Br)cc(Br)c1` (configuration not stated) is 8.03%. The compound `Cc1nc2nc(N)nc(N)c2c(C)c1Cc1ccccc1Cl` came in with an IFI of 2.22%. In turn, `Cc1cc(N2CC=CCC2)nc(NC(=N)Nc2ccc(Cl)cc2)n1` returned an IFI of 4.29%.

`CC1(C)N=C(N)N=C(N)N1c1cc(Cl)c(Cl)c(Cl)c1` came in with an IFI of 2.88%.

The compound `CC(C)(C)c1ccccc1SC1=C(O)CC2(CCNCC2)OC1=O` displayed an IFI of 0.71%. In turn, `Cc1cc(N2CCCC2)nc(Nc2ccc(NC(=O)C(C)(C)C)cc2)n1` gave an IFI of 2.38%. For `CC(C)CNC(=S)N1CCCN(c2nc3ccc(Cl)cc3s2)CC1`, the IFI came to 4.35%. With `CNC(=O)c1ccccc1Nc1nc(Nc2ccc(N3CCOCC3)cc2)ncc1Cl`, the IFI was 8%. On to `COC1CCC(C(=O)Nc2ccc(-c3cccc(-c4nc5cccc(C)c5[nH]4)c3)cc2)CC1` (configuration not stated), for which the IFI is 7.14%.

`CC1(C)N=C(NC(=O)Nc2ccc([N+](=O)[O-])cc2)N=C(N)N1OCc1cccc2ccccc12` gave an IFI of 1.46%. `CCc1nc2ccc(C(=O)OC)nc2n1Cc1ccc2oc(-c3ccccc3N)c(Br)c2c1` came in with an IFI of 10.8%. On to `Cc1[nH]c(C)c(-c2ccc(-c3ccc(Cl)cc3)nc2)c(=O)c1Cl`, for which the IFI was found to be 0.92%.

Consider `Cc1[nH]c(C)c(-c2ccc(-c3ccc(Cl)cc3)cc2)c(=O)c1Cl`, for which the IFI is 0.76%. `C[C@@H]1CC[C@H](NC(=O)[C@H](CC2CCCC2)NC(=O)N2CCNCC2)C(=O)CN1S(=O)(=O)c1ccccn1` showed an IFI of 5.93%. The figure for `CC(C)c1cccc(C(C)C)c1NC(=O)NNC(=O)c1ccc(CCN2CCC(c3nc(COCC(F)(F)F)c(-c4ccc(F)cc4)o3)CC2)cc1` is 9.22%. `COc1ccc(Cc2cnc(N)nc2N)cc1OCCCOc1ccccc1`: the IFI came to 6.34%.

In turn, `CC(C)C(C(=O)Nc1ccc2c(c1)OCO2)c1ccc(Cl)cc1` (configuration not stated) yielded an IFI of 9.18%. `O=C(COc1ccc(C(=O)c2ccccc2)cc1)Nc1nccs1` yielded an IFI of 0%. The figure for `CNC(=O)c1cc(S(=O)(=O)N2CCN(c3ccccn3)CC2)c(C)s1` is -0%; for `CC(Oc1ccc(NC(=O)c2cccs2)cc1)C(=O)c1ccc(Cl)cc1` (configuration not stated) it is 3%; for `COc1ccc2c(=NN=Cc3ccccc3)cc(C)[nH]c2c1` it is 0.74%. The compound `O=C(Nc1ccc(-c2nc3ccccc3[nH]2)cc1)C1CCN(Cc2ccccc2)CC1` displayed an IFI of 2.33%.

As to `O=C(Nc1ccc(N2CCC(Nc3ccccn3)CC2)cc1)c1cnc(Cl)c(Cl)c1`, the IFI was found to be 17.4%. As to `O=C(N[C@@H](Cc1ccccc1)[C@H](O)CNCCC(F)(F)F)c1cccc(CCC2CC2)c1`, the IFI is 6.1%.

The compound `COc1ccc(-c2cccc(NC(=O)c3ccc(Cl)cc3)c2)cc1CN1CCC(O)CC1` had an IFI of 8.82%. On to `CCNC(=O)NC1CCN(Cc2c(-c3cccs3)nc3ccccc3c2C(=O)N[C@@H](C)C2CCCCC2)CC1`, for which the IFI is 2.94%. With `CCN(CC)/C(=N/C(=N)Nc1ccc(Br)cc1)NCCCCCCN/C(=N\C(=N)Nc1ccc(Br)cc1)N(CC)CC`, the IFI turned out to be 11.1%.

In turn, `COc1ccc(NC(=O)NC2CCN(CCCOc3cc(C)nc4ccccc34)CC2)cc1OC` had an IFI of 0%. The compound `COc1ccc(-c2cccc(NC(=O)c3cccc(F)c3)c2)cc1CN1CCCN(C)CC1` gave an IFI of 7.77%.

Source of the values: ChEMBL document CHEMBL1157539, “Thousands of chemical starting points for antimalarial lead identification” (Nature, 2010).
